Assay results reported in article PMC4336329 (PLoS ONE, 2015).
Screen size: about 310,000 compounds; about 2,200 (0.71%) showed an effect of 50% or more. Effects have a minus sign here. The list shows a part of the results.

Molecular target: human ether-à-go-go-related gene (hERG) potassium channel (human, UniProt Q12809)
Test: primary screen, population patch clamp on CHO cells stably expressing hERG

human ether-à-go-go-related gene (hERG) potassium channel, sequence (Q12809 whole entry, looked up): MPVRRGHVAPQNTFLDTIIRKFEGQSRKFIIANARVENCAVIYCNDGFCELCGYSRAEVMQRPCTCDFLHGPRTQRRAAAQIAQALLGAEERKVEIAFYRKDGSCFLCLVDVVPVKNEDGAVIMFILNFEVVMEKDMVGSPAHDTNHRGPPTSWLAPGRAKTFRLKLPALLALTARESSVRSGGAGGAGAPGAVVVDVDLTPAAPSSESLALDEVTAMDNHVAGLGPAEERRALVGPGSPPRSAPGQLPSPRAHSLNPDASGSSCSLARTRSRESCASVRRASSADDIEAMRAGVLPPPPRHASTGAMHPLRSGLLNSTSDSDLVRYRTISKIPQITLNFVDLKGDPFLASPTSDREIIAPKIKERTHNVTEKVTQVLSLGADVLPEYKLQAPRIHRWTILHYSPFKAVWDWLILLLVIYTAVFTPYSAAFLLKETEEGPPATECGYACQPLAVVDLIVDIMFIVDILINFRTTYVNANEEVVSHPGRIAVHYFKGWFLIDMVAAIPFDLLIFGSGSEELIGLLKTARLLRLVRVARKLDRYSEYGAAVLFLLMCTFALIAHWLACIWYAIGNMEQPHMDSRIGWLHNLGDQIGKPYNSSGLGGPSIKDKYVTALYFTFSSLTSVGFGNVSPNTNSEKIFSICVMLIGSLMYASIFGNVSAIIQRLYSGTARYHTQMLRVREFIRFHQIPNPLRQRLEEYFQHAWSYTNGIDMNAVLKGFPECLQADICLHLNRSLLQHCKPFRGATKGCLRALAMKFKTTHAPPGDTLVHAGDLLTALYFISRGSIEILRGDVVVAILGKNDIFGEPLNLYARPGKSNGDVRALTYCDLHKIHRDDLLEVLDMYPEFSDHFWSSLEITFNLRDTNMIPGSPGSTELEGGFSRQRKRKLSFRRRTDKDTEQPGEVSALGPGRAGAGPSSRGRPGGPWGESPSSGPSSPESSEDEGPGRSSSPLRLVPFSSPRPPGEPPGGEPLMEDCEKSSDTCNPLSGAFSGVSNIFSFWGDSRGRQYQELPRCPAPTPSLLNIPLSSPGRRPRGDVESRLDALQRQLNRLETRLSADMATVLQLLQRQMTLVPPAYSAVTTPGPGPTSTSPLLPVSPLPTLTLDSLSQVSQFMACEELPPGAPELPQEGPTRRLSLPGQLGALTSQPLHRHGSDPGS

| Structure (SMILES) | hERG current change (%, negative = inhibition) at 1uM [%] |
| --- | --- |
| N/C(=N\NC(=O)c1ccc(Cl)cc1)c1cnccn1 | 13.4 |
| COC(=O)CN1CCN(C(=O)c2ccco2)CC1 | 14.6 |
| CCCCn1c(N)c(N(CCOC)C(=O)c2ccc(S(=O)(=O)N3CCCCC3)cc2)c(=O)[nH]c1=O | -12.9 |
| C/C(=N\NC(=O)c1cccc(O)c1)c1cccc(NC(=O)c2ccc(F)cc2)c1 | 0.544 |
| O=C(Nc1ccc(Cl)cc1)c1ccc(OCC2CCCO2)cc1 (stereo not shown) | 8.34 |
| Cn1c(CNC(=O)C2CCCCC2)cc2ccccc21 | 18.9 |
| COc1cccc(NC(=O)C(C)N2C(=O)c3ccccc3C2=O)c1 (stereo not shown) | 7.41 |
| CN(C)/C=C(/C(=O)c1ccc(F)cc1)S(=O)(=O)c1ccc(F)cc1 | 11.6 |
| CCOC(=O)c1cc2[nH]c3ccccc3c2[n+](-c2ccc([N+](=O)[O-])cc2)c1C.[Cl-] | -70.6 |
| FC(F)(F)c1cc(-c2ccccc2)nc(NCc2cccs2)n1 | 14.2 |
| Cc1ccc(CNC(=O)c2ccc(Cl)c(S(=O)(=O)N3CCCCC3)c2)cc1 | 5.88 |
| O=C(O)Cc1c(C(=O)O)[nH]c2ccc(C(=O)O)cc12 | 6.33 |
| Nc1nc2ccccc2n1C(=O)c1ccccc1 | -5.83 |
| COc1cccc(-n2c(SCC(N)=O)nnc2-c2ccco2)c1 | 12.8 |
| CC1CC(C)CN(S(=O)(=O)c2ccc3c(c2)CCN3C(=O)CCC(=O)O)C1 (stereo not shown) | 7.38 |
| CNC(=O)NC(=O)CSc1nnc(C(F)(F)F)n1C | 8.32 |
| CCC(C)N(C(=O)COC(=O)CN=C1NS(=O)(=O)c2ccccc21)C1CCS(=O)(=O)C1 (stereo not shown) | 3.44 |
| COc1cc(OC)c(OC)cc1CCC(C)NC(=O)Cc1ccccc1 (stereo not shown) | 1.35 |
| O=C(Nc1ccccc1F)Nc1cc(S(=O)(=O)N2CCOCC2)ccc1N1CCCC1 | 6.7 |
| CC(Oc1ccc(F)cc1)C(=O)Nc1cc(S(=O)(=O)N2CCOCC2)ccc1N1CCN(C)CC1 (stereo not shown) | 5.48 |
| COc1cccc(N2CCN(CC(=O)Nc3ccccc3C(=O)NCc3ccccc3)CC2)c1 | 6.34 |
| O=C1c2ccncc2C(=O)N1Cc1cccc(Cl)c1 | 1.04 |

| Structure (SMILES) | hERG current change (%, negative = inhibition) at 1uM [%] |
| --- | --- |
| COc1ccccc1C(=O)NC(CCSC)C(=O)OCC(=O)c1ccc[nH]1 (stereo not shown) | 4.33 |
| CCS(=O)(=O)N1CCCC(C(=O)NCCc2ccc(C)cc2)C1 (stereo not shown) | 5.15 |
| O=C(Nc1ccccc1Cl)c1ccc(-c2ccccn2)s1 | 6.87 |
| CC(C)N(C(=O)Cn1cc(SCC(=O)NCc2ccco2)c2ccccc21)C(C)C | -5.87 |
| COc1ccc(C(=O)CC(SCC(NC(C)=O)C(=O)O)c2ccc(Cl)cc2)cc1OC (stereo not shown) | 13 |
| Cc1[nH]cnc1C(=O)N/N=C/c1ccc([N+](=O)[O-])s1 | 17.9 |
| CCCn1nnc2sc3c(c2c1=O)CCC(C)C3 (stereo not shown) | 13.6 |
| O=c1cc(-c2ccc(O)cc2)oc2cc(O[C@@H]3O[C@H](CO)[C@@H](O)[C@H](O)[C@H]3O[C@@H]3OC[C@](O)(CO)[C@H]3O)cc(O)c12 | 12.2 |
| CCN1CCCC1CNC(=O)c1cc(COc2ccc(C)c(C)c2)on1 (stereo not shown) | -18.3 |
| C[C@H](NC(=O)CCC(=O)N1C[C@H]2C[C@H](C1)c1cccc(=O)n1C2)c1ccccc1 | 6.45 |
| O=S(=O)(c1cccc(-c2cn3cc(Cl)ccc3n2)c1)N1CCOCC1 | 1.73 |
| Cc1ccc(S(=O)(=O)CCC(=O)OCC(=O)N2CCN(c3ccccc3)CC2)cc1 | -7.19 |
| COc1ccc(CN(C)C(=O)c2ccc3c(=O)n4c(nc3c2)CCC4)c(OC)c1 | 14.3 |
| Nc1nc(SCc2ccccc2)ns1 | 13.5 |
| Cl.Nc1nc2nc(SCC(=O)N3CCCc4ccccc43)[nH]c2c(=O)[nH]1 | 12.3 |
| CCCS(=O)(=O)N1CCC(C(=O)NCCN(C)Cc2ccccc2)CC1 | 13.2 |
| COCC(=O)Oc1c(S(=O)(=O)c2ccccc2)c(C)nn1C(C)(C)C | 12 |
| Cc1cc(C(=O)CN2C(=O)NC3(CCCCC3)C2=O)c(C)n1C | -2.9 |
| CC(C)(C)NC(=O)CSc1ncccc1-c1nc2ccccc2[nH]1 | 7.27 |
| COc1ccc(N=CC2=C(O)CC(C)(C)CC2=O)cc1 | 6.56 |
| Cc1nn(CC(=O)NCc2ccco2)c(C)c1[N+](=O)[O-] | 17.2 |
| CCC(Sc1ccccn1)C(=O)Nc1cccc([N+](=O)[O-])c1 (stereo not shown) | 1.42 |

| Structure (SMILES) | hERG current change (%, negative = inhibition) at 1uM [%] |
| --- | --- |
| Cc1ccc(C(=O)NCc2nnc(SCC(=O)Nc3sc4c(c3C#N)CCCC4)n2C)cc1 | -2.94 |
| CCOc1ccccc1CN1CCNC(=O)C1CC(=O)NCCc1ccccn1 (stereo not shown) | 4.28 |
| Cc1ccc(C(C)C)c(OCC(=O)Nc2ccc3c(c2)nc(CCN2CCCCC2)n3C)c1 | -41.9 |
| Nc1c(N(Cc2ccco2)C(=O)c2cccc(F)c2)c(=O)[nH]c(=O)n1Cc1ccccc1 | 13.7 |
| N#Cc1cccc(CN2CCC(=O)N([C@H](CO)Cc3ccccc3)CC2)c1 | 1.5 |
| O=C(NC1CCCC1)C(c1cccs1)N(Cc1ccco1)C(=O)Cn1nnc(-c2cccs2)n1 (stereo not shown) | 9.41 |
| COc1ccc(C(=O)N/N=C/c2sc(=O)n(Cc3cccc(C(=O)O)c3)c2Cl)cc1 | 12.2 |
| CC(=O)n1cc([C@H]2C=C(C(=O)N3CCN(Cc4ccccc4)CC3)O[C@@H](OCCCCO)C2)c2ccccc21 | 10.9 |
| CCCn1c(=S)[nH]c2ccccc2c1=O | 6.7 |
| O=C1OC(/C(=C\Nc2ccc(F)cc2F)[N+](=O)[O-])c2ccccc21 (stereo not shown) | 20.3 |
| COCCCN1C(=O)C(O)=C(C(=O)c2ccco2)C1c1cccc(Br)c1 (stereo not shown) | 10.7 |
| COC(=O)[C@H](Cc1ccccc1)NC(=O)NCCc1ccccc1F | 10.8 |
| CN1Cc2c(N3CCOCC3)nc(SCCC#N)c(C#N)c2CC1(C)C | 5.21 |
| Cc1[nH]n2c(=O)c3c(nc2c1-c1ccc(Cl)cc1)CCC3 | 7.97 |
| COc1ccc(-c2nnc(SCC(=O)Nc3cc(S(=O)(=O)N4CCCCC4)ccc3Cl)n2N)cc1 | 9.06 |
| CSc1nc2[nH]ncc2c(=O)n1-c1ccccc1 | 9.08 |
| O=C(c1ccccc1)N1CCN(c2ccc([N+](=O)[O-])c(NCc3cccnc3)c2)CC1 | 8.37 |
| Cc1cc(C)c(C#N)c(SCc2[nH]nc3c2C(c2ccc(F)cc2)C(C#N)=C(N)O3)n1 (stereo not shown) | 3.97 |
| Cc1cccc(N2CC(C(=O)O)CC2=O)c1C (stereo not shown) | 11.6 |
| COc1ccc2oc(C(=O)OC(C)C(=O)N3CCC(C)CC3)c(C)c2c1 (stereo not shown) | 7.2 |
| Cl.NCCOc1ccccc1-c1ccccc1 | -3.53 |
| CCOC(=O)/C(=N/Nc1ccccc1)Sc1nnc(CCc2ccccc2)n1-c1ccccc1 | 1.94 |

| Structure (SMILES) | hERG current change (%, negative = inhibition) at 1uM [%] |
| --- | --- |
| Cc1cc(OCC(F)(F)C(F)(F)C(F)(F)C(F)(F)C(F)(F)C(F)F)nc(N)n1 | 14.7 |
| CCCNC(=O)NC(=O)CSc1ccc(C)cc1C | 18.1 |
| COc1ccc(-n2c(=O)c3ccccc3n(CC(=O)NC3CCCC3)c2=O)cc1 | 12.8 |
| CNC(=S)N(CCc1cccc(C)c1)Cc1cc2cc(OC)c(OC)cc2[nH]c1=O | 6.34 |
| O=C(O)CCc1nn2c3ccccc3n(CC(=O)O)c2nc1=O | 9.42 |
| CCCn1c(/N=C/c2c[nH]c3ccccc23)nc2ccccc21 | 4.56 |
| COc1ccc(C=O)cc1Cn1c(=O)n(CCC(=O)NCc2ccco2)c(=O)c2sccc21 | 5.91 |
| CCCn1nnc(NC(=O)/C=C/c2ccc(C(C)C)cc2)n1 | 8.19 |
| O=C(Nc1ccc(Br)cc1)c1cc(S(=O)(=O)Nc2ccccn2)ccc1Cl | 7.32 |
| O=C1C2CCCN2c2ccc(S(=O)(=O)N3CCOCC3)cc2N1Cc1cccc(C(F)(F)F)c1 (stereo not shown) | 14.9 |
| CC(C(=O)Nc1ccc2[nH]c(=O)[nH]c2c1)N1CCN(Cc2ccc3c(c2)OCO3)CC1 (stereo not shown) | 8.98 |
| CC(C)c1ccc(/C=N/n2c(COc3ccccc3)n[nH]c2=S)cc1 | 12 |
| C=CCN1C(=O)c2ccc(C(=O)N(C)CC(=O)Nc3c(C)cccc3C)cc2C1=O | 18.1 |
| O=C1C(Cl)=C(N2CCOCC2)C(=O)N1c1cccc(C(F)(F)F)c1 | 10.9 |
| Cc1ccc(-c2nc3ccccc3s2)cc1NC(=O)c1ccc2c(c1)OCO2 | 12.7 |
| COc1ccccc1NC(=O)COC(=O)Cc1c[nH]c2ccccc12 | 0.794 |
| CCN(CC(=O)NCc1cccs1)C(=O)c1ccc(S(=O)(=O)Nc2ccccc2)cc1 | 6.41 |
| CCOC(=O)C(CC)/C(C)=N\NC(=O)c1cccc(C)c1 (stereo not shown) | 40.9 |
| CC(C)n1c(SCC(=O)Nc2ccc3c(c2)OCO3)nc2c1c(=O)n(C)c(=O)n2C | 9.19 |
